These results are taken from the supplement of paper PMC12217912.

First the molecules themselves.
B1: TEV protease; numbered along this chain (parent)
chain: MGESLFKGPRDYNPISSSICHLTNESDGHTTSLYGIGFGPFIITNKHLFRRNNGTLVVQSLHGVFKVKDTTTLQQHLVDGRDMIIIRMPKDFPPFPQKLKFREPQREERICLVTTNFQTKSMSSMVSDTSCTFPSGDGIFWKHWIQTKDGQCGSPLVSTRDGFIVGIHSASNFTNTNNYFTSVPKNFMELLTNQEAQQWVSGWRLNADSVLWGGHKVFMVKPEEPFQPVKEATQL

This is one part of the list. The full chains were built here from the parent and the listed change. Inactive controls read about 0.05.
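Note: Bxb1 expression induced with 0.2% (w/v) L-rhamnose at OD600 near 0.5, cultures sampled hourly, flipped fraction per protease–substrate barcode pair counted by paired-end Illumina sequencing.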

The variants in this assay derive from B1. Description: raw area under fraction-flipped curve 0-4 h after induction (AUC4h, not background-subtracted), DNA-recorder readout of cleavage of the substrate (dimensionless); higher = more cleavage of the substrate by the protease variant. The following applies: temperature: 34 °C; time window: 0-4 h after rhamnose induction. On the procedure:
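In vivo DNA recorder in E. coli TOP10(DE3) ΔrhaA at 34 °C. Each TEVp single-site mutant (parent TEVp 0) is paired with a single-site variant of the 7-mer TEVs (canonical ENLYFQ|S). The substrate sits between flexible linkers in a Bxb1-sfGFP-TEVs-SsrA fusion, so cleavage stabilises Bxb1 and speeds flipping of a recombination array, read by NGS. The value is the raw area under the fraction-flipped curve over 0-4 h after rhamnose induction (AUC4h), with ≥20 reads per time point. It is not background-subtracted; inactive controls average about 0.047.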
In the case of MGESLFKGPRDYNPISSSICHLTNESDGHTTSLYGIGFGPFIITNKHLFRRNNGTLVVHSLHGVFKVKDTTTLQQHLVDGRDMIIIRMPKDFPPFPQKLKFREPQREERICLVTTNFQTKSMSSMVSDTSCTFPSGDGIFWKHWIQTKDGQCGSPLVSTRDGFIVGIHSASNFTNTNNYFTSVPKNFMELLTNQEAQQWVSGWRLNADSVLWGGHKVFMVKPEEPFQPVKEATQL [Q59H], the “area with substrate ENLYFAS” value was 0.0402, the “area with substrate ENLYFCS” value was determined as 0.0544, the “area with substrate ENLYFDS” value turned out to be 0.0762 and the “area with substrate ENLYFES” value was determined as 0.0777. Also, the “area with substrate ENLYFFS” value came to 0.0751, the “area with substrate ENLYFIS” value was determined as 0.0415, the “area with substrate ENLYFLS” value came to 0.06 and the “area with substrate ENLYFMS” value was determined as 0.069. Moreover, the “area with substrate ENLYFNS” value worked out at 0.0612, the “area with substrate ENLYFPS” value amounted to 0.055, the “area with substrate ENLYFRS” value stood at 0.0508 and the “area with substrate ENLYFSS” value was determined as 0.0669. Besides, the “area with substrate ENLYFVS” value came out at 0.0454, the “area with substrate ENLYFWS” value stood at 0.0717 and the “area with substrate ENLYFYS” value came out at 0.052.

MGESLFKGPRDYNPISSSICHLTNESDGHTTSLYGIGFGPFIITNKHLFRRNNGTLVVQSLHGVFKVKDTTTLQQHRVDGRDMIIIRMPKDFPPFPQKLKFREPQREERICLVTTNFQTKSMSSMVSDTSCTFPSGDGIFWKHWIQTKDGQCGSPLVSTRDGFIVGIHSASNFTNTNNYFTSVPKNFMELLTNQEAQQWVSGWRLNADSVLWGGHKVFMVKPEEPFQPVKEATQL [L77R]: the “area with substrate ENLYFAS” value stood at 0.0597, the “area with substrate ENLYFCS” value came to 0.0492, the “area with substrate ENLYFES” value was 0.0793 and the “area with substrate ENLYFFS” value worked out at 0.0658. For the same variant, the “area with substrate ENLYFHS” value is 0.0571, the “area with substrate ENLYFIS” value turned out to be 0.0661, the “area with substrate ENLYFKS” value was 0.0636 and the “area with substrate ENLYFNS” value came out at 0.06. Moreover, the “area with substrate ENLYFSS” value worked out at 0.0653, the “area with substrate ENLYFWS” value stood at 0.0469 and the “area with substrate ENLYFYS” value stood at 0.0589.

As for MHESLFKGPRDYNPISSSICHLTNESDGHTTSLYGIGFGPFIITNKHLFRRNNGTLVVQSLHGVFKVKDTTTLQQHLVDGRDMIIIRMPKDFPPFPQKLKFREPQREERICLVTTNFQTKSMSSMVSDTSCTFPSGDGIFWKHWIQTKDGQCGSPLVSTRDGFIVGIHSASNFTNTNNYFTSVPKNFMELLTNQEAQQWVSGWRLNADSVLWGGHKVFMVKPEEPFQPVKEATQL [G2H], the “area with substrate ENLYFAS” value was 0.0689, the “area with substrate ENLYFES” value was found to be 0.0594, the “area with substrate ENLYFFS” value turned out to be 0.0776 and the “area with substrate ENLYFKS” value stood at 0.054. Besides, the “area with substrate ENLYFLS” value was determined as 0.048, the “area with substrate ENLYFMS” value was found to be 0.0686 and the “area with substrate ENLYFRS” value came out at 0.0798.

With MGESLFKGPRDYNPISSSICHLTNESDGHTTSLYGIGFGPFIITNKHLFRRNNGTLVVQSLHGVFKVKDTTTLQQHLVDGRDMIIIRMPKDFPPFPQKLKFREPQREERICLVTTNFQTKSMSSMVSDTSCTFPSGDGIFWKHWIQTKDGQCGSPLVSTRDGFIVGIHSASNFTNTNNYFTEVPKNFMELLTNQEAQQWVSGWRLNADSVLWGGHKVFMVKPEEPFQPVKEATQL [S182E], the “area with substrate ENLYFAS” value turned out to be 0.0614, the “area with substrate ENLYFDS” value was 0.0483, the “area with substrate ENLYFES” value turned out to be 0.0568 and the “area with substrate ENLYFGS” value was determined as 0.0081. Moreover, the “area with substrate ENLYFHS” value is 0.0426, the “area with substrate ENLYFIS” value is 0.0528, the “area with substrate ENLYFKS” value is 0.0559 and the “area with substrate ENLYFPS” value stood at 0.0548. In addition, the “area with substrate ENLYFRS” value was found to be 0.0648, the “area with substrate ENLYFWS” value turned out to be 0.0512 and the “area with substrate ENLYFYS” value worked out at 0.0614.

For the variant MGESLFKGPRDYNPISSSICHLTNESDGHTTSLYGIGFGPFIITNKHLFRRNNGTLVVQSLHGVFKVKDTTTLQQHLVDGRDMIIIRMPKDFPPFPQKLDFREPQREERICLVTTNFQTKSMSSMVSDTSCTFPSGDGIFWKHWIQTKDGQCGSPLVSTRDGFIVGIHSASNFTNTNNYFTSVPKNFMELLTNQEAQQWVSGWRLNADSVLWGGHKVFMVKPEEPFQPVKEATQL [K100D], the “area with substrate ENLYFAS” value was determined as 0.0581, the “area with substrate ENLYFES” value came to 0.074, the “area with substrate ENLYFFS” value came to 0.071 and the “area with substrate ENLYFHS” value amounted to 0.067. Also, the “area with substrate ENLYFIS” value worked out at 0.0525, the “area with substrate ENLYFKS” value was found to be 0.0742, the “area with substrate ENLYFNS” value stood at 0.0549 and the “area with substrate ENLYFPS” value amounted to 0.0787. The “area with substrate ENLYFVS” value came out at 0.0727, the “area with substrate ENLYFWS” value was found to be 0.0584 and the “area with substrate ENLYFYS” value is 0.0632.

MGESLFKGPRDYNPISSSICHLTNESDGHTTSLYGIGFGPFIITNKHLFRRNNGTLVVQSLHGVFKVKDTTTLQQHLVDGRDMIIIRMPKDFPPFPQKLKFREPQREERICLVTTVFQTKSMSSMVSDTSCTFPSGDGIFWKHWIQTKDGQCGSPLVSTRDGFIVGIHSASNFTNTNNYFTSVPKNFMELLTNQEAQQWVSGWRLNADSVLWGGHKVFMVKPEEPFQPVKEATQL [N116V]: the “area with substrate ENLYFAS” value is 0.0618, the “area with substrate ENLYFCS” value was 0.0623, the “area with substrate ENLYFDS” value was determined as 0.067 and the “area with substrate ENLYFES” value came to 0.0644. Also, the “area with substrate ENLYFIS” value stood at 0.0431, the “area with substrate ENLYFKS” value was determined as 0.0648, the “area with substrate ENLYFMS” value came out at 0.0446 and the “area with substrate ENLYFPS” value was found to be 0.0583. Besides, the “area with substrate ENLYFVS” value was determined as 0.051, the “area with substrate ENLYFWS” value is 0.0561 and the “area with substrate ENLYFYS” value is 0.046.

Regarding MGESLFKGPRDYNPISSSICHLTNESDGHTTSLYGIGFGPFIITNKHLFRRNNGTLVVQSLHGVFKVKDTTTLQQHLVDGRDMIIIRMPKDFPPFPQKLKFREPQREERICLVTTNFQTKSMSSMVSDTSCTFPSGDGIFFKHWIQTKDGQCGSPLVSTRDGFIVGIHSASNFTNTNNYFTSVPKNFMELLTNQEAQQWVSGWRLNADSVLWGGHKVFMVKPEEPFQPVKEATQL [W141F], the “area with substrate ENLYFAS” value was 0.0586, the “area with substrate ENLYFCS” value was determined as 0.0507, the “area with substrate ENLYFFS” value was 0.0663 and the “area with substrate ENLYFHS” value was 0.0585. The “area with substrate ENLYFIS” value came to 0.0627, the “area with substrate ENLYFMS” value is 0.0627, the “area with substrate ENLYFNS” value amounted to 0.0586 and the “area with substrate ENLYFPS” value came to 0.0625. For the same variant, the “area with substrate ENLYFRS” value was 0.0509, the “area with substrate ENLYFSS” value is 0.0672, the “area with substrate ENLYFWS” value is 0.0568 and the “area with substrate ENLYFYS” value came to 0.055.

On to MGESLFKGPRDYNPISSSICHLTNESDGHTTSLYGIGFGPFIITNKHLFRRNNGTLVVQSLHGVFKVKDTTTLQQHLVDGRVMIIIRMPKDFPPFPQKLKFREPQREERICLVTTNFQTKSMSSMVSDTSCTFPSGDGIFWKHWIQTKDGQCGSPLVSTRDGFIVGIHSASNFTNTNNYFTSVPKNFMELLTNQEAQQWVSGWRLNADSVLWGGHKVFMVKPEEPFQPVKEATQL [D82V], for which the “area with substrate ENLYFAS” value was found to be 0.0481, the “area with substrate ENLYFCS” value is 0.0469, the “area with substrate ENLYFDS” value is 0.0831 and the “area with substrate ENLYFES” value amounted to 0.0586. In addition, the “area with substrate ENLYFFS” value worked out at 0.0344, the “area with substrate ENLYFGS” value is 0.0331, the “area with substrate ENLYFIS” value worked out at 0.0495 and the “area with substrate ENLYFKS” value amounted to 0.0791. Also, the “area with substrate ENLYFMS” value was 0.0535.
